The values below come from publication PMC3912163.

Sequences of proteins named here, by UniProt entry; tags and fusion partners are left off.
UniProt Q94A79: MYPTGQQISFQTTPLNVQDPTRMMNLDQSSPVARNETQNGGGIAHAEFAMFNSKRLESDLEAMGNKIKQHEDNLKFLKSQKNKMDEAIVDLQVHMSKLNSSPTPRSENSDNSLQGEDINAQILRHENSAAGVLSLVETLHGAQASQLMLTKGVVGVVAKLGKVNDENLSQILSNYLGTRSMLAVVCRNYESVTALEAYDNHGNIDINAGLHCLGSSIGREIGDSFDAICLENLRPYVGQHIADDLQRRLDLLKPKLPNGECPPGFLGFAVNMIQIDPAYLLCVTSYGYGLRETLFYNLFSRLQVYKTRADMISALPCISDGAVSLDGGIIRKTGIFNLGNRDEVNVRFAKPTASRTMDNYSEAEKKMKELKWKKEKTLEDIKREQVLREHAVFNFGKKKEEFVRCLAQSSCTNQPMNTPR

Common to all, as to assay: two-hybrid; yeast reporter strain Hf7c (Clontech); growth on SD-WLH with 10 mM 3-amino-1,2,4-triazole (His3 reporter) and beta-galactosidase activity with ONPG
Experiment [1] deals with … IN MERISTEM …3 (DMS3) (Arabidopsis thaliana) (UniProt Q94A79).
For experiment [2], the target named is RNA-DIRECTED DNA …ON1/… IN MERISTEM … 7 (RDM1), wild type (Arabidopsis thaliana) (UniProt Q9LUJ3).
In experiment [3] the target is … IN MERISTEM …3 (DMS3) (Arabidopsis thaliana) (UniProt Q94A79). The source holds these as a separate data set.
Experiment [4] deals with rdm1-p1p2 (RDM1 Y51A, Y54A) (Arabidopsis thaliana) (UniProt Q9LUJ3).
In experiment [5] the target is rdm1-M50A (RDM1 M50A) (Arabidopsis thaliana) (UniProt Q9LUJ3).
Experiment [6] has as its target rdm1-d1d2 (RDM1 L128R, I132R) (Arabidopsis thaliana) (UniProt Q9LUJ3).

Positions count from the first letter of the chain named. Names and notes keep the numbering of the source. Like-named read-outs stand apart in the source and are kept apart here. No constants are given. Whether binding was seen depends on the method and setting. Some results given as binding are weak or reduced against the parent protein; the word gives no strength.

As for “… IN MERISTEM …3 (DMS3) (from UniProt Q94A79 1-420)”, in experiment [1], the binding entry is “binds”.

B1: RNA-DIRECTED DNA …ON1/… IN MERISTEM … 7 (RDM1), wild type (protein, UniProt Q9LUJ3 1-163)
chain: MQSSMTMELRPSGDSGSSDVDAEISDGFSPLDTSHRDVADEGSLLRRAEMYQDYMKQVPIPTNRGSLIPFTSWVGLSISMKQLYGQPLHYLTNVLLQRWDQSRFGTDSEEQRLDSIIHPTKAEATIWLVEEIHRLTPSHLHMALLWRSDPMYHSFIDPIFPEK
Take B1: the binding entry in experiment [2] and in experiment [3] was “binds” each time.

B2: rdm1-p1p2 (RDM1 Y51A, Y54A) (protein, UniProt Q9LUJ3 1-163)
chain: B1 chain with Y51A, Y54A
For the molecule B2, the binding entry in experiment [3] and in experiment [4] was “no binding” throughout.

B3: rdm1-M50A (RDM1 M50A) (protein, UniProt Q9LUJ3 1-163)
chain: B1 chain with M50A
For the molecule B3, the binding result in experiment [3] and in experiment [5] was “binds” in each case.

B4: rdm1-d1d2 (RDM1 L128R, I132R) (protein, UniProt Q9LUJ3 1-163)
chain: B1 chain with L128R, I132R
With B4, the binding entry in experiment [3] was “binds”; in experiment [6], “no binding”.
